Data reported in a collection of fitness landscapes (doi:10.1126/science.1257360).
The list shows a part of the results.

B1: PhoQ; a variant is named by its letters at X, in order, P23837 (parent)
chain: MKKLLRLFFPLSLRVRFLLATAAVVLVLSLAYGMVALIGYSVSFDKTTFRLLRGESNLFYTLAKWENNKLHVELPENIDKQSPTMTLIYDENGQLLWAQRDVPWLMKMIQPDWLKSNGFHEIEADVNDTSLLLSGDHSIQQQLQEVREDDDDAEMTHSVAVNVYPATSRMPKLTIVVVDTIPVELKSSYMVWSWFIYVLSANLLLVIPLLWVAAWWSLRPIEALAKEVRELEEHNRELLNPATTRELTSLVRNLNRLLKSERERYDKYRTTLTDLTHSLKTPLXXLQXXLRSLRSEKMSVSDAEPVMLEQISRISQQIGYYLHRASMRGGTLLSRELHPVAPLLDNLTSALNKVYQRKGVNISLDISPEISFVGEQNDFVEVMGNVLDNACKYCLEFVEISARQTDEHLYIVVEDDGPGIPLSKREVIFDRGQRVDTLRPGQGVGLAVAREITEQYEGKIVAGESMLGGARMEVIFGRQHSAPKDE

Variants of: B1
Assay: enrichment ratio after two sorts for PhoP signalling (ratio (wild type AVST 3.29)); higher = more functional
Conditions: with PhoP (E. coli)

Variant | enrichment ratio
FCAC | 1.76
HVLY | ≤ 0.25
IKEW | ≤ 0.25
NGHN | ≤ 0.25
SIQI | 10.2
HSYV | ≤ 0.25
LLIY | ≤ 0.25
IMIE | ≤ 0.25
STFA | ≤ 0.25
LVIF | ≤ 0.25
TVLC | 6.08
ITLD | ≤ 0.25
DTFE | ≤ 0.25
FTNE | ≤ 0.25
VCHC | ≤ 0.25
ERYY | ≤ 0.25
MHHF | ≤ 0.25
TAEG | 1.55
RYVM | ≤ 0.25
AQHW | ≤ 0.25
TRSC | 0.581
LHAS | ≤ 0.25
LFVA | ≤ 0.25
VDQK | ≤ 0.25

Variant | enrichment ratio
LLYR | ≤ 0.25
IMDD | ≤ 0.25
MHQS | ≤ 0.25
DAHR | ≤ 0.25
VHMW | ≤ 0.25
QEVF | ≤ 0.25
KRFC | ≤ 0.25
HPDG | ≤ 0.25
KCDP | ≤ 0.25
TFYA | ≤ 0.25
MGKV | ≤ 0.25
REPH | ≤ 0.25
WAQW | ≤ 0.25
GLHL | ≤ 0.25
IKRF | ≤ 0.25
YRFW | ≤ 0.25
QHWL | ≤ 0.25
MSDM | 0.744
KCSQ | ≤ 0.25
QFPY | ≤ 0.25
VSYY | ≤ 0.25
HITQ | ≤ 0.25
FVSV | ≤ 0.25
TPHV | ≤ 0.25

Variant | enrichment ratio
WNDD | ≤ 0.25
KFGN | ≤ 0.25
YCRG | ≤ 0.25
GGVQ | ≤ 0.25
YEYS | ≤ 0.25
EFYL | ≤ 0.25
MSST | 0.476
SYDQ | ≤ 0.25
YWFC | ≤ 0.25
FGRE | ≤ 0.25
EGAQ | ≤ 0.25
IMAD | ≤ 0.25
WRWW | ≤ 0.25
DDTQ | ≤ 0.25
QEIH | ≤ 0.25
FQRY | ≤ 0.25
AAKP | ≤ 0.25
VAHL | 1.14
SPDK | ≤ 0.25
LHCT | ≤ 0.25
IGYK | ≤ 0.25
VHEI | ≤ 0.25
IWRY | ≤ 0.25
GKFG | ≤ 0.25

Variant | enrichment ratio
MFKN | ≤ 0.25
HQGP | ≤ 0.25
MECW | ≤ 0.25
LKGG | ≤ 0.25
VHTP | ≤ 0.25
LMQQ | ≤ 0.25
PQNY | ≤ 0.25
MLPY | ≤ 0.25
VFAD | ≤ 0.25
FSDI | ≤ 0.25
CYSM | ≤ 0.25
RYTD | ≤ 0.25
PEMN | ≤ 0.25
ANVD | ≤ 0.25
KYPK | ≤ 0.25
FATL | 0.78
IEDL | ≤ 0.25
FVNP | ≤ 0.25
FKWD | ≤ 0.25
DCYQ | ≤ 0.25
QGTD | ≤ 0.25
MMTW | ≤ 0.25
LQQP | ≤ 0.25
GVPH | ≤ 0.25

Variant | enrichment ratio
MPFP | ≤ 0.25
FINF | 2.48
DTIH | ≤ 0.25
PWHA | ≤ 0.25
QINY | ≤ 0.25
HQAE | ≤ 0.25
HMHL | ≤ 0.25
MVTS | ≤ 0.25
NKWV | ≤ 0.25
TVVI | ≤ 0.25
IQHP | ≤ 0.25
WTNH | ≤ 0.25
FEDQ | ≤ 0.25
TSEL | 9.95
WSHD | ≤ 0.25
HWQS | ≤ 0.25
TFRY | ≤ 0.25
HWTE | ≤ 0.25
NASD | ≤ 0.25
SQPC | ≤ 0.25
IRGE | ≤ 0.25
MHAP | ≤ 0.25
WEFS | ≤ 0.25
YDLQ | ≤ 0.25

Variant | enrichment ratio
AKKG | ≤ 0.25
NPYI | ≤ 0.25
NFPG | ≤ 0.25
RRQQ | ≤ 0.25
IGFS | ≤ 0.25
YKDV | ≤ 0.25
GGRK | ≤ 0.25
GNND | ≤ 0.25
YFGP | 0.289
ARKF | ≤ 0.25
RKDY | ≤ 0.25
WVHA | ≤ 0.25
DFIE | ≤ 0.25
QVSG | 1.56
ACTC | 4.29
GWAN | ≤ 0.25
RYGG | ≤ 0.25
YICD | ≤ 0.25
ALRA | ≤ 0.25
YTYK | ≤ 0.25
DLLY | ≤ 0.25
IGRQ | ≤ 0.25
QVYW | ≤ 0.25
FNWP | ≤ 0.25

Variant | enrichment ratio
RAQC | ≤ 0.25
YPTR | ≤ 0.25
HHWI | ≤ 0.25
STKH | ≤ 0.25
SMRI | ≤ 0.25
SHPE | ≤ 0.25
PWIT | ≤ 0.25
SQPS | ≤ 0.25
TLNL | ≤ 0.25
NDCW | ≤ 0.25
WWFF | ≤ 0.25
NSVT | ≤ 0.25
PIYT | ≤ 0.25
DRDV | ≤ 0.25
ASQK | ≤ 0.25
IEKF | ≤ 0.25
IHCT | ≤ 0.25
QMHN | ≤ 0.25
QMFD | ≤ 0.25
QVCG | ≤ 0.25
MSLP | ≤ 0.25
IKCT | ≤ 0.25
QMNM | ≤ 0.25
GWIQ | ≤ 0.25

Variant | enrichment ratio
GVLF | 10.3
NTNL | ≤ 0.25
WVAD | ≤ 0.25
TQCY | 15.8
TYEF | ≤ 0.25
SRPK | ≤ 0.25
KQMI | ≤ 0.25
NHWE | ≤ 0.25
GYIF | ≤ 0.25
LIPM | 1.53
VIDL | ≤ 0.25
QSQS | ≤ 0.25
MFWT | ≤ 0.25
YRMN | ≤ 0.25
RIIA | ≤ 0.25
EFEY | ≤ 0.25
GNAH | ≤ 0.25
IDLH | ≤ 0.25
NWGC | ≤ 0.25
IWYP | ≤ 0.25
MEFQ | 3.08
VCQW | ≤ 0.25
QVSD | ≤ 0.25
SNRT | ≤ 0.25

Variant | enrichment ratio
WLWT | ≤ 0.25
FRGQ | ≤ 0.25
QGAF | ≤ 0.25
IKNF | ≤ 0.25
YQYP | ≤ 0.25
WTPR | ≤ 0.25
GWIN | ≤ 0.25
YVHH | ≤ 0.25
YTES | ≤ 0.25
WATI | ≤ 0.25
VGQA | ≤ 0.25
VSQM | ≤ 0.25
WQRW | ≤ 0.25
PDQP | ≤ 0.25
DHGG | ≤ 0.25
SPRT | ≤ 0.25
YWGQ | ≤ 0.25
GACP | ≤ 0.25
FMYT | ≤ 0.25
THWT | 4.42
VTGN | ≤ 0.25
NRIE | ≤ 0.25
WHRS | ≤ 0.25
EYAF | ≤ 0.25

Variant | enrichment ratio
ILGI | ≤ 0.25
FPVP | ≤ 0.25
LFPG | ≤ 0.25
MELA | ≤ 0.25
NDPV | ≤ 0.25
TNDL | ≤ 0.25
EYRW | ≤ 0.25
VRPY | ≤ 0.25
KTLG | ≤ 0.25
ENPT | ≤ 0.25
LGHS | ≤ 0.25
DWIR | ≤ 0.25
DTNN | ≤ 0.25
GGDN | ≤ 0.25
ASGE | 4.1
RLQW | ≤ 0.25
MMGF | ≤ 0.25
HFNH | ≤ 0.25
ARSY | ≤ 0.25
NILA | ≤ 0.25
MPCF | ≤ 0.25
PFNN | ≤ 0.25
GRQY | ≤ 0.25
MCIV | ≤ 0.25

Variant | enrichment ratio
TWSH | ≤ 0.25
GTCA | ≤ 0.25
RQEA | ≤ 0.25
YSVN | ≤ 0.25
RWPW | ≤ 0.25
MGHK | ≤ 0.25
LGCQ | ≤ 0.25
LQNQ | ≤ 0.25
PHYF | ≤ 0.25
KHLV | ≤ 0.25
MAHT | ≤ 0.25
WQYS | ≤ 0.25
IRPR | ≤ 0.25
YEPM | ≤ 0.25
PPLP | ≤ 0.25
YTAT | ≤ 0.25
MKLP | ≤ 0.25
EPSI | ≤ 0.25
ATVR | 4.36
FSLD | ≤ 0.25
RLGV | ≤ 0.25
NWPC | ≤ 0.25
GTVL | 7.4
AHLF | 7.38

Variant | enrichment ratio
VTSK | ≤ 0.25
PELD | ≤ 0.25
TMMI | 0.351
PDQH | ≤ 0.25
DKQF | ≤ 0.25
HQSL | ≤ 0.25
YAKR | ≤ 0.25
RKWH | ≤ 0.25
HCYN | ≤ 0.25
PFYQ | 3.49
KANG | ≤ 0.25
GDYA | ≤ 0.25
HVYL | ≤ 0.25
EVYK | ≤ 0.25
IEHH | ≤ 0.25
QNWF | ≤ 0.25
PHKN | ≤ 0.25
ITAD | ≤ 0.25
ATDA | ≤ 0.25
VRQV | ≤ 0.25
STQD | ≤ 0.25
IMFA | ≤ 0.25
SIDL | ≤ 0.25
YPLM | ≤ 0.25

Variant | enrichment ratio
FLYY | ≤ 0.25
HYDF | 7.09
QQGL | ≤ 0.25
SWHL | 0.549
QCIW | ≤ 0.25
LFVF | ≤ 0.25
HQCT | ≤ 0.25
VWNK | ≤ 0.25
IQPL | ≤ 0.25
VITY | ≤ 0.25
ISGP | ≤ 0.25
FLEE | ≤ 0.25
QVYD | ≤ 0.25
HWST | ≤ 0.25
KQHH | ≤ 0.25
MRGH | ≤ 0.25
NQTH | ≤ 0.25
HLML | ≤ 0.25
